Hit rate of the full screen: of about 44,000 compounds, about 340 (0.77%) were called active. Roughly 5% stayed inconclusive and do not appear here. Calls follow the shape of the dose curve; as a rule, active = well fitted inhibition curve with a large enough effect; inconclusive = small, poorly fitted or top-dose-only effect; inactive = flat fitted curve, though single readings scatter. The list shows a part of the results.
Assay: Acumen qHTS Assay for Inhibitors of the mTORC1 Signaling Pathway in MEF (Tsc2-/-, p53-/-) Cells: Sytravon;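 also: plate controls were DMSO for no effect and rapamycin for full effect; nearly all actives have a fitted effect of over 50% in size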
Settings: phospho-rpS6 immunofluorescence/PI, 24 h; series mostly up to 38.3 µM; activity change, negative = inhibition: at the top concentration
In short: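 Compounds act on Tsc2-/-, p53-/- fibroblasts carrying an empty vector for 24 h before fixation and dual staining for phospho-S6 and DNA (propidium iodide). Values are percentages of cells above a rapamycin-defined pS6/PI threshold.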

Activity change, negative = inhibition, inactive:
Cc1ccc(C)c(NC(=O)Cn2ncc3c(C)n(Cc4ccc(F)cc4)c(C)c3c2=O)c1 -0.435%
CC1=C(c2ccc(C)c(C)c2)S(=O)(=O)N(Cc2ccc(C(=O)NCc3ccccc3F)cc2)C1=O 2.9%
N#C/C(=C\c1ccc(O)cc1)C(=O)NCC1CCCO1 (stereo not given) -0.53%
Cc1cc(C)cc(NC(=O)Cn2nnc(-c3ccccc3F)n2)c1 -36.5%
COc1ccc(-c2cc(C(F)(F)F)n3nc(C)c(-c4ccccc4)c3n2)cc1OC -10.9%
O=C(CCc1cn(Cc2ccc(F)cc2)c2ccccc12)NC1CCCCC1 1.47%
CCOC(=O)c1c(Nc2ccc(C)c(C)c2)nnc(-c2ccccc2)c1-c1ccccc1 -7.95%
Cc1ccc(C)c(OCC(=O)Nc2sc3c(c2C#N)CCCC3)c1C -19.7%
CCCC(=O)Nc1cc2nn(-c3ccc(OC)cc3)nc2cc1C -5.17%
CCOc1ccc(NC(=O)NCCN2CCN(c3cc(Cl)ccc3C)CC2)cc1 -11.4%
O=C(NCCc1ccccc1)c1c[nH]c2ccc(S(=O)(=O)Nc3ccc(F)cc3F)cc2c1=O 6.05%
Cc1cc(C)c(NC(=O)Cn2c(=O)n(CCC(C)C)c(=O)c3cccnc32)c(C)c1 -0.129%
COc1ccc(CNC(=O)CN2N=C(c3ccc(Cl)cc3)CCC2=O)cc1 -1.32%
CCc1ccc(C(=O)c2cn(CC(=O)NCCc3ccccc3)c3nc(C)ccc3c2=O)cc1 -5.76%
COc1cccc(NC(=O)C2CCCN(c3ncnc4onc(-c5ccc(F)cc5)c34)C2)c1 (stereo not given) 4.01%
COc1ccc(Cn2c(SCc3ccc(C(=O)NCc4ccc(C)cc4)cc3)nc3cccnc32)cc1 -7.97%
O=C(NCCc1ccccc1)c1ccc2c(c1)N(Cc1ccc(Cl)cc1)C(=O)c1ccccc1S2(=O)=O -9.76%
Cc1ccc(N2CC(NC(=O)CCCc3ccccc3)CC2=O)cc1 (stereo not given) -4.33%
CCN(c1ccccc1C)S(=O)(=O)c1nnc(NC(=O)c2ccc(OC)c(OC)c2)s1 5.27%
Cc1ccc(C2=Nc3ccccc3N=C(c3ccc(F)cc3)C2)c(O)c1 -0.507%
CCc1nc(SC)ncc1C(=O)NCc1cccc(Br)c1 -0.8%
O=C(Cn1nc(Cc2cccnc2)c2ccccc2c1=O)N1CCN(c2ccccc2F)CC1 4.66%
Cc1ccc(Cl)cc1N1CCN(c2nc3ccc(C(=O)c4ccccc4)cc3n3cnnc23)CC1 -3.45%
Cc1cc(O)c2c(C)c(CC(=O)NCc3ccccc3Cl)c(=O)oc2c1 2.78%
COc1ccc(CNC(=O)c2ccc(CN3C(=O)C(C)=C(c4ccc(C)cc4)S3(=O)=O)cc2)cc1 1.57%
Cc1ccc(-n2ncc(C(=O)Nc3ccc4c(c3)OCCO4)c2C2CCN(C(=O)OC(C)(C)C)CC2)cc1C 6.63%
CC1=C(C(=O)NCc2cccc(F)c2)C2(CCCCCC2)OC1=O -2.38%
COc1ccc(Nc2nc3ccc(C)cc3nc2-n2nc(C)cc2C)cc1Cl 6.15%
COc1ccccc1N1CCN(C(=O)Cn2ncc3c2-c2cc(C)ccc2OC3)CC1 -2.89%
COCCN1CCc2nc(SCC(=O)Nc3ccc(C)c(Cl)c3)[nH]c(=O)c2C1 3.91%
COc1ccccc1NC(=O)CC1Sc2ccc(C(F)(F)F)cc2NC1=O (stereo not given) -9.69%
CCOc1ccccc1CNC(=O)Cn1c(=O)c2cccn2c2ccc(F)cc21 -2.34%
COc1ccc(-c2onc(C)c2C)cc1S(=O)(=O)NCc1cccs1 0%
CCOC(=O)c1noc2ncn(CC(=O)Nc3ccc(F)cc3Cl)c(=O)c12 -6.41%
Cc1ccc(OCCSc2nc3ccccc3n2CC(=O)N2CCOCC2)cc1 2.28%
CC1=C(C(=O)OCc2ccc(C)cc2)C(c2ccccc2C(F)(F)F)CC(=O)N1 (stereo not given) -12.1%
CCOc1ccc(C(=O)Nc2ccc3c(c2)CCCN3S(=O)(=O)c2ccc(C)cc2)cc1 12.7%
CC1CCCCN1Cc1c(O)ccc2c(=O)c(-c3ccc(Cl)cc3)c(C(F)(F)F)oc12 (stereo not given) -1.6%
COC(=O)c1c(NC(=O)c2ccc(Cl)c(Cl)c2)sc2c1CCCC2 7.91%
CCOc1ccc(NC(=O)CSc2nnc3scc(-c4ccccc4)n23)cc1 9.47%
O=C(Nc1ccccc1F)c1cnc(N2CCCCC2)c2ccccc12 -0.351%
Cc1oc(-c2ccccc2F)nc1Cn1c(SCc2cccc(C(F)(F)F)c2)nc2ccncc21 -0.874%
CCc1ccccc1NC(=O)c1cc(-c2ccc(Cl)s2)nc2ccccc12 -0.69%
COc1ccc(OC)c(CNC(=O)CCCn2c(=O)c3cccn3c3cccnc32)c1 -1.37%
CCOc1ccccc1NC(=O)Cn1c(=O)n(Cc2ccc(OC)cc2)c(=O)c2oc3ccccc3c21 2.87%
COc1ccc(N(CC(=O)Nc2cc(OC)cc(OC)c2)S(=O)(=O)c2c(C)noc2C)cc1 -0.61%
COc1ccccc1-c1nnc(C2CCN(C(=O)c3ccccc3C)CC2)o1 -17.3%
Cc1cc2c(cc1S(=O)(=O)Nc1ccc(C(C)C)cc1)OCCN2C 0%
Cc1cccc(-n2c(C)cc(C(=O)C(=O)Nc3nncs3)c2C)c1 -2.21%
COc1ccccc1NC(=O)c1cc2c(=O)n(Cc3cccs3)ccc2nc1C -4.93%
Cc1cccc(-n2cnc3cc(C(=O)NCc4ccccc4Cl)ccc32)c1 -6.66%
COc1ccc(CCNc2ncnc3c2c(-c2ccccc2)cn3-c2ccc(Cl)cc2)cc1OC -2.85%
CCOC(=O)CSc1nc2ccc(NC(=O)c3ccc(Cl)cc3)cc2s1 2.76%
COC(=O)c1ccc(NC(=O)C2CCN(c3ncnc4c3nc3n4CCCCC3)CC2)cc1 -4.84%
COc1cc(CN(C(=O)c2ccc(OC(C)C)cc2)c2ccccn2)cc(OC)c1OC -15.6%
Cc1cc(C)cc(NC(=O)CSc2c(C(C)C)cnc3c2c(=O)n(C)c(=O)n3C)c1 -0.185%
Cc1cc(Nc2nc3ccccc3c3nnc(C)n23)ccc1Br -0.805%
Cc1cc(C)cc(Nc2cc(C(=O)NC3CCCCC3)c3ccccc3n2)c1 2.59%
CCOC(=O)c1ccccc1NC(=O)CSc1nnc(CC)n2c1cc1occc12 -10.4%
Fc1ccc(-c2cc3ncc4c(n3n2)-c2cc(Cl)ccc2OC4)cc1 2.61%
CCOC(=O)c1cc(C)n(CC2CCC(C(=O)Nc3ccc(OC)cc3)CC2)c1C (stereo not given) -9.92%
Cc1cc(C)c(S(=O)(=O)Nc2ccc(-c3ccc(N4CCCCCC4)nn3)cc2)c(C)c1 -2.82%
Cn1cnnc1SCC(=O)Nc1ccc(C#N)cc1 -0.861%
COC(=O)c1ccc(OCC2c3cc(OC)c(OC)cc3CCN2C(=O)Cc2ccccc2)cc1 (stereo not given) 0.767%
CN(CC(=O)NCc1ccccc1)S(=O)(=O)c1ccc2[nH]c3c(c2c1)CCCC3 2.84%
CCc1ccccc1NC(=O)C1(C)Cc2ccccc2C(=O)O1 (stereo not given) -5.12%
CC(C)(C)C1CCc2c(sc(NC(=O)c3ccc(Cl)cc3)c2C(=O)NCc2ccco2)C1 (stereo not given) -2.36%
COc1ccccc1N1CCN(c2ncnc3c2cnn3-c2cccc(Cl)c2)CC1 5.6%
CCN(Cc1ccccc1)S(=O)(=O)c1cc(C(=O)Nc2cc(Cl)cc(Cl)c2)ccc1F -14%
COc1ccc(-c2[nH]c(-c3cccc(OC)c3)nc2SCC(=O)NC2CCCC2)cc1 -14.3%
COc1ccc(-c2cn3nc(N4CCCC(C(=O)Nc5cc(C)cc(C)c5)C4)sc3n2)cc1 (stereo not given) 0.839%
CCN(CC)S(=O)(=O)c1ccc(C(=O)N2CC(=O)Nc3ccc(F)cc3C2c2ccccc2)cc1 (stereo not given) -0.755%
O=C(C1CCN(S(=O)(=O)c2ccc(Br)s2)CC1)N1CCN(c2ccccc2)CC1 -16.5%
CC(C)(C)OC(=O)N1CCC(c2c(C(=O)NCCc3ccccc3)cnn2-c2ccc(F)cc2)CC1 6.75%
COc1ccc(CCN2C(=O)NC(NS(=O)(=O)c3ccc(NC(C)=O)cc3)(C(F)(F)F)C2=O)cc1OC (stereo not given) -6.27%
CC(=O)Nc1ccc2nc(SCCOc3cc(C)cc(C)c3)sc2c1 -11.2%
COc1cc(NC(=O)c2c(C)oc3c2C2=NCCN2C=N3)cc(OC)c1OC -9.34%
CCc1ccc(-c2nn(CC(=O)NCc3ccccc3)c3c2cnc2ccc(F)cc23)cc1 -3.32%
COc1ccc(OCC(=O)NCc2ccc3c(c2)CCN3C(=O)c2ccc(F)cc2)cc1 -14.4%
COc1cc(NC(=O)COCc2cc(-c3ccc4c(c3)OCO4)on2)cc(OC)c1 -9.74%
Cc1ccc(-n2c(=O)c3c(cnn3C)n(Cc3ccccc3F)c2=O)cc1 -6.63%
Cn1c2ccccc2c2cnn(CC(=O)Nc3ccccc3C(F)(F)F)c(=O)c21 -7.18%
CCn1cc(S(=O)(=O)c2ccccc2)c(=O)c2cc(F)c(N3CCN(c4ccccc4)CC3)cc21 -6.76%
CCN(CC)C(=O)c1sc2c(c1C)c(=O)n(-c1ccc(OC)cc1OC)c(=O)n2CC(=O)c1ccc(Cl)cc1 -2.81%
COc1cc(NC(=O)c2oc3c(c2C)-c2nn(Cc4cccc(Cl)c4)cc2CC3)cc(OC)c1 8.39%
N#Cc1ccc(C(=O)Nc2ccc3c(c2)N(C2CCCC2)C(=O)c2ccccc2S3)cc1 -0.803%
CC(C)Sc1ncc(Cl)c(C(=O)N(Cc2ccc(N(C)C)cc2)C2CCS(=O)(=O)C2)n1 (stereo not given) 0.145%
CCc1nn(CC(=O)Nc2ccc(N(CC)CC)cc2C)c(=O)c2cc3sccc3n12 3.56%
Cc1nn(-c2ccc(N3CCCC3)nn2)c(C)c1CCC(=O)Nc1ccc(F)c(Cl)c1 -7.08%
Cc1ccc(-c2noc(-c3ccccc3NC(=O)C3CC(=O)N(c4ccccc4C)C3)n2)cc1 (stereo not given) -28.4%
CCn1ccc2c(OCC(=O)NCc3ccc(F)cc3)cccc2c1=O -14.2%
CC(C)Cn1c(=O)c2ccccc2n2c(CCC(=O)NC(C)c3ccccc3)nnc12 (stereo not given) 1.8%
Cc1cc(C)c2nc(N(Cc3cccnc3)C(=O)c3cccs3)sc2c1 -9.36%
CCOc1ccc(C2C(C(=O)Nc3ccccc3)=C(C)Nc3nc(SCc4cc(C)ccc4C)nn32)cc1 (stereo not given) -1.39%
COc1cccc2cc(-c3nnc(Nc4c(F)cccc4F)s3)c(=O)oc12 -0.686%
